Structures can show the parent of a compound that is named as a salt. The list shows a part of the results.
tested on: Schistosoma mansoni schistosomula; assay: phenotypic hit in primary schistosomula screen (any phenotype vs DMSO control) (binary (1 = hit, 0 = no phenotype)); higher = active (phenotype induced); settings: 1 µM; time (d): 7

Phenotypic hit, inactive:
CON [methoxyamine hydrochloride] 0
CCN(CCO)CCCC(C)Nc1ccnc2cc(Cl)ccc12 (stereo unspecified) [hydroxychloroquine sulfate] 0
CCOC(=O)NNc1nncc2ccccc12 [todralazine hydrochloride] 0
CCCCN1CCCCC1C(=O)Nc1c(C)cccc1C (stereo unspecified) [bupivacaine hydrochloride] 0
CC1(C)[C@@H](O)CC[C@]2(C)[C@H]3C(=O)C=C4[C@H]5C[C@@](C)(C(=O)O)CC[C@]5(C)CC[C@@]4(C)[C@]3(C)CC[C@@H]12 [18alpha-glycyrrhetinic acid] 0
CC(=O)O[C@@H]1CC2C(C)(CC[C@H](O)C2(C)C)C2CC[C@]3(C)C(=CC(=O)O[C@H]3c3ccoc3)C21C (stereo partly drawn) [3beta-hydroxydeoxodihydrodeoxygedunin] 0
O=c1c(-c2cc(O)c(O)c(O)c2)coc2cc(O)c(O)c(O)c12 [irigenol] 0
CC(COc1ccccc1)NC(C)C(O)c1ccc(O)cc1 (stereo unspecified) [isoxsuprine hydrochloride] 0
Cc1cc(=O)oc2c(O)c(O)ccc12 [4-methyldaphnetin] 0
CC12CCCC(O)(C1)C1CC(C)(C)C1CC2 (stereo not drawn) [beta-caryophyllene alcohol] 0
COc1cc(OC)c(-c2c(OC)cc(OC)cc2OC)c(OC)c1 [difucol hexamethyl ether] 0
C#C[C@]1(O)CC[C@H]2[C@@H]3CCC4=C(CCC(=O)C4)[C@H]3CC[C@@]21C [norethynodrel] 0
CC[N+](CC)(CC)CCOc1cccc(OCC[N+](CC)(CC)CC)c1OCC[N+](CC)(CC)CC [Gallamine triethiodide] 0
CC(C)(C)NCC(O)c1cc(O)cc(O)c1 (stereo unspecified) [terbutaline hemisulfate] 0
COc1ccc2c(c1)O[C@@H]1COc3cc(OC)c(OC)cc3[C@@H]1C2=O [mundoserone] 0
NCc1ccc(S(N)(=O)=O)cc1 [mafenide hydrochloride] 0
CN[C@@H]1[C@H](O[C@H]2[C@H](O[C@H]3[C@H](O)[C@@H](O)[C@H](NC(=N)N)[C@@H](O)[C@@H]3NC(=N)N)O[C@@H](C)[C@]2(O)CO)O[C@@H](CO)[C@H](O)[C@H]1O [dihydrostreptomycin sulfate] 0
CC/C(=C(\c1ccccc1)c1ccc(OCCN(C)C)cc1)c1ccccc1 [Tamoxifen citrate] 0
O=C(O)c1cccnc1C(=O)O [Quinolinic acid] 0
COc1cc2c(cc1-c1coc3c4c(c(OC)cc3c1=O)OC(C)(C)C=C4)OCO2 [ichthynone] 0
CC(=O)O[C@@H]1C[C@H]2C(C)(C)[C@H](O)C[C@H](O)[C@]2(C)[C@H]2CC[C@@]3(C)[C@H](c4ccoc4)OC(=O)[C@H]4O[C@]43[C@@]21C [1,3-dideacetylkhivorin] 0
CCOc1ccc(NC(C)=O)cc1 [phenacetin] 0
CN1CCC[C@@H]1CCO[C@](C)(c1ccccc1)c1ccc(Cl)cc1 [clemastine] 0
CC(C(=O)O)c1ccc(C(=O)c2cccs2)cc1 (stereo unspecified) [suprofen] 0
CC(=O)O[C@H]1CC[C@]2(C)[C@H]3C(=O)C=C4[C@@H]5C[C@@](C)(C(=O)O)CC[C@]5(C)CC[C@@]4(C)[C@]3(C)CC[C@H]2C1(C)C [acetoxolone] 0
N[C@@H](C=O)[C@@H](O[C@@H]1O[C@H](C(=O)O)[C@@H](O)[C@H](O)[C@H]1O)[C@@H](O)[C@H](O)CO [chondrosine] 0
COc1ccc(C(=O)c2ccccc2O)c(O)c1 [dioxybenzone] 0
COCCc1ccc(OCC(O)CNC(C)C)cc1 (stereo unspecified) [metoprolol tartrate] 0
COc1ccc(-c2cc(=O)c3ccc(OC)cc3o2)cc1 [4,7-dimethoxyflavone] 0
COC1=CC(=O)C=C(OC)C1=O [2,6-dimethoxyquinone] 0
CCOC(=O)C1=C(O)C(=O)N(Cc2ccccc2)C1 [ethyl 1-benzyl-3-hydroxy- 2-oxo[5h]pyrrole-4-carboxylate] 0
O=c1c(O)c(-c2ccc(O)c(O)c2)oc2cc(O)cc(O)c12 [quercetin] 0
CC(=O)Nc1cccc(O)c1 [metacetamol] 0
O=C(O)C1(C(=O)O)CCC1.[NH2-].[NH2-].[Pt+2] [carboplatin] 0
N=C(N)NCCCCN [Agmatine sulfate] 0
CN1CCOC(c2ccccc2)c2ccccc2C1 (stereo unspecified) [nefopam] 0
COc1cc2occ(-c3ccccc3)c(=O)c2c(OC)c1C [4,6-dimethoxy-5-methylisoflavone] 0
CC1(C)CC[C@]2(C(=O)O)CC[C@]3(C)C(=CCC4[C@@]5(C)CC[C@@H](O)C(C)(C)C5CC[C@]43C)C2C1 (stereo partly specified) [oleanoic acid] 0
CCCCNc1ccc(C(=O)OCCN(C)C)cc1 [Tetracaine hydrochloride] 0
NC(=O)c1ccc[n+]([C@@H]2O[C@H](COP(=O)([O-])OP(=O)(O)OC[C@H]3O[C@@H](n4cnc5c(N)ncnc54)[C@H](OP(=O)(O)O)[C@@H]3O)[C@@H](O)[C@H]2O)c1 [sodium beta-nicotinamide adenine dinucleotide phosphate] 0
CCc1ccc2c(O)c3c(cc2c1C(=O)OC)C(=O)c1c(O)ccc(O)c1C3=O [bisanhydrorutilantinone] 0
C=C1C2CC[C@@]3(C)[C@H](c4ccoc4)OC(=O)C[C@]13O[C@H]1CC(=O)C(C)(C)[C@H](C(O)C(=O)OC)[C@@]21C (stereo partly specified) [6-hydroxyangolensic acid methyl ester] 0
O=C1[C@H](CC[C@H](O)c2ccc(F)cc2)[C@@H](c2ccc(O)cc2)N1c1ccc(F)cc1 [ezetimibe] 0
CC(=O)O[C@H]1C[C@@H](OC(C)=O)C(C)(C)[C@@H]2C[C@@H](OC(C)=O)[C@@]3(C)C4=CC(=O)O[C@@H](c5ccoc5)[C@]4(C)CC[C@@H]3[C@@]12C [deoxykhivorin] 0
COC(=O)C1=C(C)NC(C)=C(C(=O)OCCN(C)Cc2ccccc2)C1c1cccc([N+](=O)[O-])c1 (stereo unspecified) [Nicardipine hydrochloride] 0
COC(=O)[C@H]1[C@H]2C[C@@H]3c4[nH]c5cc(OC)ccc5c4CCN3C[C@H]2C[C@@H](OC(=O)/C=C/c2cc(OC)c(OC)c(OC)c2)[C@@H]1OC [rescinnamine] 0
CC(C)=CCc1c2c(c3occ(-c4ccc(O)cc4)c(=O)c3c1O)C=CC(C)(C)O2 [osajin] 0
C=C1C2=CC(=O)O[C@@H](c3ccoc3)[C@]2(C)CC[C@@H]1[C@@]1(C)C=CC(=O)C(C)(C)[C@@H]1CC(=O)OC [deoxyandirobin] 0
O=c1c2ccccc2oc2ccc(O)cc12 [2-hydroxyxanthone] 0
C[C@@H]1CC[C@@]23CCC4(C)[C@@](C=CC5[C@@]6(C)CCC(=O)C(C)(C)C6CC[C@]54C)(OC2=O)C3[C@H]1C (stereo partly specified) [3-oxoursan (28-13)olide] 0
NC(=O)NC1NC(=O)NC1=O (stereo unspecified) [allantoin] 0
CN(C)CCOC(c1ccc(Cl)cc1)c1ccccn1 (stereo unspecified) [carbinoxamine maleate] 0
COc1ccc(-c2cc(=O)c3c(OC)cccc3o2)cc1 [5,4'-dimethoxyflavone] 0
COc1c2ccoc2cc2oc(=O)ccc12 [bergapten] 0
CCCCCCCCCCCC1=C(O)C(=O)C=C(O)C1=O [embelin] 0
CC(=O)OC(C)(C)[C@@H]1Cc2cc3ccc(=O)oc3cc2O1 [marmesin acetate] 0
Cc1ccccc1C(OCCN(C)C)c1ccccc1 (stereo unspecified) [orphenadrine citrate] 0
O=C1C(O)=C([C@H]2CC[C@H](c3ccc(Cl)cc3)CC2)C(=O)c2ccccc21 [atovaquone] 0
CC(=O)OCC1=C(C(=O)O)N2C(=O)[C@@H](NC(=O)Cc3cccs3)[C@H]2SC1 [cephalothin sodium] 0
CCN(CC)CCNC(=O)COc1ccc(OC)cc1 [mefexamide] 0
CCCCc1nc(Cl)c(CO)n1Cc1ccc(-c2ccccc2-c2nnn[nH]2)cc1 [losartan] 0
CC1(C)S[C@@H]2[C@H](NC(=O)Cc3ccccc3)C(=O)N2[C@H]1C(=O)O [penicillin g potassium] 0
COC(=O)C[C@H]1C(C)(C)[C@@H](OC(C)=O)[C@@H]2CC3C4CC(=O)O[C@@H](c5ccoc5)[C@]4(C)CCC3[C@@]1(C)C2=O (stereo partly specified) [dihydrofissinolide] 0

Phenotypic hit, active:
CC[C@@H](C(=O)[C@@H](C)[C@@H](O)[C@H](C)CCc1ccc(C)c(O)c1C(=O)O)[C@H]1O[C@](CC)([C@H]2CC[C@](O)(CC)[C@H](C)O2)C[C@@H]1C [lasalocid sodium] 1
CCOC(=O)[N-]c1c[n+](N2CCOCC2)no1 [molsidomine] 1
CCN(CC)CCOc1ccc(C(=C(Cl)c2ccccc2)c2ccccc2)cc1 [clomiphene citrate] 1

— the supplement of paper PMC2702839
